Experimental data taken from PubChem BioAssay AID1745853 (National Center for Advancing Translational Sciences (NCATS), 2022).
The list shows a part of the results. Shown are side measurements of this screen, not its main read-out; they come without a call.

Assays:
Test in all cases: Primary Screen for Target Class Profiling of Small Molecule Inhibitors of Methyltransferases
[1] = target: Glycine N-methyltransferase (Homo sapiens) (UniProt Q14749); settings: purified enzyme, MTase-Glo SAH luminescence; measured here: GNMT inhibition; at 40 µM; stronger effect = lower value
Procedure, shortened: (§1)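 Each enzyme was reacted with SAM and its substrate, with compounds tested once at 40 uM; SAH formed was read by MTase-Glo luminescence.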

[2] = target: Guanidinoacetate N-methyltransferase (Homo sapiens) (UniProt Q14353); settings: purified enzyme, MTase-Glo SAH luminescence; measured here: GAMT inhibition; at 40 µM; stronger effect = lower value
Procedure, shortened: as §1

[3] = target: Histamine N-methyltransferase (Homo sapiens) (UniProt P50135); settings: purified enzyme, MTase-Glo SAH luminescence; measured here: HNMT inhibition; at 40 µM; stronger effect = lower value
Procedure, shortened: as §1

[4] = target: Nicotinamide N-methyltransferase (Homo sapiens) (UniProt P40261); settings: purified enzyme, MTase-Glo SAH luminescence; measured here: NNMT inhibition; at 40 µM; stronger effect = lower value
Procedure, shortened: as §1

[5] = target: Phenylethanolamine N-methyltransferase (Homo sapiens) (UniProt P11086); settings: purified enzyme, MTase-Glo SAH luminescence; measured here: PNMT inhibition; at 40 µM; stronger effect = lower value
Procedure, shortened: as §1
% is set by controls: 0 for no effect and ±100 for the full control effect.

Compound	activity change, negative = inhibition [1]	activity change, negative = inhibition [2]	activity change, negative = inhibition [3]	activity change, negative = inhibition [4]	activity change, negative = inhibition [5]
CC(C)Cn1c(=O)c2ccc(C(=O)NC(C)C)cc2n2c(=O)n(Cc3cccc(Cl)c3)nc12	6.01%	0%	4.21%	5.29%	8.22%
Cc1ccccc1Cn1nc2n(Cc3ccccc3)c(=O)c3ccc(C(=O)NC(C)C)cc3n2c1=O	3.54%	0.852%	6.53%	1.73%	3.21%
CCc1nc2c(c(-c3ccc(O)cc3)n1)CCN(Cc1ccc(F)cc1)CC2	-5.65%	-6.59%	-5.1%	-15.2%	-10.2%
O=C(c1ccccc1OCC1CCCN(Cc2nccs2)C1)N1CCCC1 (configuration not stated)	-8.56%	-8.43%	-15.8%	-12.1%	-8.89%
Cn1ccc(NC(=O)c2cc(Oc3ccc(C(=O)N4CCC4)c(F)c3)c3c(c2)OC(C)(C)C3)n1	-3.76%	-3.76%	1.61%	-21.6%	-5.04%
COc1cc(CN2CCN(Cc3ccc(-n4cccn4)cc3C)CC2CCO)cc(OC)c1 (configuration not stated)	-7.82%	-4.76%	-4.47%	-18.9%	-10.5%
CC1(C)CC[C@]2(C(=O)O[C@@H]3O[C@H](CO)[C@@H](O)[C@H](O)[C@H]3O)CC[C@]3(C)C(=CCC4[C@@]5(C)CC[C@H](O[C@@H]6O[C@H](C(=O)O)[C@@H](O[C@@H]7O[C@H](CO)[C@@H](O)[C@H](O)[C@H]7O)[C@H](O)[C@H]6O)C(C)(C)C5CC[C@]43C)C2C1 (some centres not stated)	2.72%	12.7%	4.68%	-3.9%	10.8%
C[C@H](Cc1ccccc1)Nc1ncnc2c1ncn2[C@@H]1O[C@H](CO)[C@@H](O)[C@H]1O	-10%	1.17%	-4.2%	-5.15%	4.93%
C=C1C(=O)O[C@H]2C3=C(C)CCC[C@]3(C)C(=O)C[C@@H]12	1.43%	3.66%	9.55%	-6.8%	2.46%
CNC(=O)N1CCC(C2CCN(C(=O)NCc3cccc(OC)c3)C2)CC1 (configuration not stated)	-2.55%	-1.71%	1.03%	-5.42%	-2.77%
COc1ccccc1CN1C(=O)c2ccc(-c3ccccc3)n2CC1(C)C(=O)NC1CCCCCC1 (configuration not stated)	-3.06%	3.12%	-5.07%	-12.5%	-3.71%
CCOC(=O)c1cc2n(n1)CC(C)(C(=O)NC1CCCCC1)N(Cc1ccc(OCC)cc1)C2=O (configuration not stated)	7.15%	2.51%	2.62%	1.53%	7.05%
O=C(NCC1CCCO1)C1CCN(C2CCN(C(=O)CCC3CCCCC3)CC2)CC1 (configuration not stated)	-1.57%	0.585%	2.14%	-3.77%	-1.83%
COc1ccc(OC2OC(CO[C@@H]3O[C@@H](C)[C@H](O)[C@@H](O)[C@H]3O)C(O)C(O)C2O)cc1OC (some centres not stated)	-4.66%	-0.493%	-18.9%	-9.63%	-7.66%
O=C(CC1CC(c2ccc(F)cc2F)=NO1)N1CCOCC1 (configuration not stated)	-4.62%	-6.42%	-1.73%	-15.1%	-4.97%
CC(C)[S+](=O)([O-])N1CC2ON=C(C(=O)O)C2C1 (configuration not stated)	-0.762%	-4.46%	0.712%	-6.34%	-1.99%
CC(=O)Nc1ccc([C@H](C)C(=O)Nc2ncc(C(C)C)s2)cc1	2.67%	-2.63%	6.28%	-31.4%	0.707%
Cc1cccc(NC(=O)N2CCn3cccc3C2C)c1 (configuration not stated)	-0.971%	0%	5.54%	-1.17%	5.3%
CCN(CC)S(=O)(=O)c1ccc(-c2nc(C)ccc2OC)cc1	-5.83%	-4.1%	-3.12%	-12%	-10.4%
COCc1cn(C[C@H]2C[C@@H](NC(=O)c3ccc(C#N)cc3)[C@H](O)[C@@H]2O)nn1	-6.88%	-10.6%	-6.67%	-15.9%	-14.8%
COc1nc(C)cnc1NS(=O)(=O)c1cccnc1-c1ccc(-c2nnco2)cc1	4.4%	3.72%	6.97%	-7.36%	0.49%
Cc1ccc(NS(=O)(=O)c2cc3c(cc2Cl)n(C)c(=O)n3C)cc1	-1.4%	3.87%	-6.79%	-13.3%	-5.87%
CC1CCC(N2C(=O)c3ccc(-c4ccco4)n3CC2(C)C(=O)NC2CCCCCC2)CC1 (configuration not stated)	-4.72%	4.7%	-3.16%	-7.51%	-5.15%
O=C1CCN(Cc2cccc(F)c2)CCCOCCN1	-4.47%	-12.2%	-1.88%	-9.79%	-5.07%
CN(C)c1nc(-c2ccncc2)nc2c1CCN(C(=O)c1cc(=O)[nH][nH]1)C2	-12.5%	-6.07%	-5.08%	-8.69%	0.207%
CCN(CC)CCCN(c1ccccc1)C1Cc2ccccc2C1	-7.12%	3.14%	-9.07%	-14.3%	4.82%
CC1(C(=O)NC2CCCCCC2)Cn2c(ccc2-c2ccco2)C(=O)N1CCCN1CCCCC1 (configuration not stated)	0.274%	4.89%	-2.07%	-1.26%	-18.7%
CCCNC(=O)N1CCC2(CC1)N(c1ccccc1)C(=O)CS2=O (configuration not stated)	-0.187%	-0.066%	1.37%	-2.09%	-1.68%
CCNC(=O)[C@@H]1CCCN1C(=O)[C@H](CCCN=C(N)N)NC(=O)[C@H](CC(C)C)NC(=O)[C@@H](CC(C)C)NC(=O)[C@H](Cc1ccc(O)cc1)NC(=O)[C@H](CO)NC(=O)[C@H](Cc1c[nH]c2ccccc12)NC(=O)[C@H](Cc1cnc[nH]1)NC(=O)[C@@H]1CCC(=O)N1	2.09%		1.18%		
